# Measurements as given in article PMC4336329 (PLoS ONE, 2015).
# In all, about 310,000 compounds went through this assay and about 2,200 (0.71%) showed an effect of 50% or more. Effects have a minus sign here. Some of the results follow.
# Biological target: human ether-à-go-go-related gene (hERG) potassium channel (human, UniProt Q12809)
# Test: primary screen, population patch clamp on CHO cells stably expressing hERG
# Sequence of human ether-à-go-go-related gene (hERG) potassium channel (Q12809 whole entry, looked up): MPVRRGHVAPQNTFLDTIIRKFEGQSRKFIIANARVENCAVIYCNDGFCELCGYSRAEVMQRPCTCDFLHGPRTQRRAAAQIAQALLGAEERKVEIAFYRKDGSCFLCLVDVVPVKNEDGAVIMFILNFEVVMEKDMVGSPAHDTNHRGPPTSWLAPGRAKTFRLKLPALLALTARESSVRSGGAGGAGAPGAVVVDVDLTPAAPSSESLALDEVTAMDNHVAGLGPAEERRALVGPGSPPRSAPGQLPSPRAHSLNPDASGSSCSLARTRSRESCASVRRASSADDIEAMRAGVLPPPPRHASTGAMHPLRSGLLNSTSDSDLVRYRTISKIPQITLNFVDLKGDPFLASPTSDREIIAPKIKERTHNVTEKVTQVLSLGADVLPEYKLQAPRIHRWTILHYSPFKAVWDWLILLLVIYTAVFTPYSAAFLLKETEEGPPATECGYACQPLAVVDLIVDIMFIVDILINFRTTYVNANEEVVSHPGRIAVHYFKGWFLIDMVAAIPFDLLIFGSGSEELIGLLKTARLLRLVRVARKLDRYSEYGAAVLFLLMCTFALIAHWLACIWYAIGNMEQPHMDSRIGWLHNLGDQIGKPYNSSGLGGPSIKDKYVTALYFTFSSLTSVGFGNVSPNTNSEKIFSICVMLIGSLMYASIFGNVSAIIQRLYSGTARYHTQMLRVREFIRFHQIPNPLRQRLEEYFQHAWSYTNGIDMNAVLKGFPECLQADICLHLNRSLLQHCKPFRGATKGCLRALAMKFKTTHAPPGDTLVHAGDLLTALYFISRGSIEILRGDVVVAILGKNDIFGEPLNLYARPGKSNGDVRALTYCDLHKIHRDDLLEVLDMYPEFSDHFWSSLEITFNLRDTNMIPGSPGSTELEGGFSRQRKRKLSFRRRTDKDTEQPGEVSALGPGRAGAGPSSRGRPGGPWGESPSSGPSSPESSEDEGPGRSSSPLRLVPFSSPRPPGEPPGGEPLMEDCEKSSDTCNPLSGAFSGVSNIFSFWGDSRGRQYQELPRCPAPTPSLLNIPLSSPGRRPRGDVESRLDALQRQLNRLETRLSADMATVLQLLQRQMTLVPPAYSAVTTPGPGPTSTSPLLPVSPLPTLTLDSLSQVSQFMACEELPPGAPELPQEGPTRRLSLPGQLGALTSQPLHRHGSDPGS
row,Compound,"hERG current change (%, negative = inhibition) at 1uM [%]"
1,Cc1ccc(OCC(=O)Nc2nnc(-c3ccco3)s2)cc1,7.55
2,COc1ccc(NC(=O)c2[nH]c(C)c(C(C)=O)c2C)cc1,17.3
3,CCCN(C(=O)CSCc1c(C)noc1C)c1c(N)n(Cc2ccccc2)c(=O)[nH]c1=O,20.8
4,COc1cccc(/C=C2/SC(=S)N(CC(=O)NNC(=O)c3ccccc3OC)C2=O)c1,1.85
5,COC(=O)N/N=C/c1ccccc1,11
6,Cc1ccc(-c2nnn(CC(=O)Nc3ccc4nn(-c5ccccc5)nc4c3)n2)o1,6.12
7,O=C(Cn1nnc(-c2cccs2)n1)NNC(=O)c1ccccc1Cl,5.68
8,CCN1CCN(CCC(=O)Nc2ccc(C)cc2)CC1.Cl,1.39
9,CNC(=O)CN(c1cc(C)ccc1OC)S(=O)(=O)c1ccc(C)cc1,-2.61
10,CN(C)/C=C/C(=O)c1ccc(Br)cc1,12
11,Cc1ccc(Cn2ccc(=O)c(Cc3c(Cl)cccc3Cl)c2C)cc1,-1.17
12,COc1ccc(NC(=S)NCCc2ccc(Cl)cc2)c(OC)c1,12.9
13,O=C(O)CCN1C(=O)C(=C2CCCCCC2)SC1=S,5.86
14,CCOc1ccccc1Nc1nnc(SCc2ccc(C(=O)OC)o2)s1,-8.76
15,O=C1CCCC2(O)C1C(c1cccc(Br)c1)NC(=O)N2Cc1ccccc1 (centres unmarked),8.78
16,O=C(O)/C=C/c1ccc(OCCCF)cc1,15
17,O=C(Nc1ccc(F)cc1)c1cc2c(s1)CCCC2,13.3
18,O=C(CCC(=O)N/N=C/c1c[nH]c2ccccc12)NCc1ccccc1,10.8
19,O=C(Cn1cc([N+](=O)[O-])ccc1=O)NCC1COc2ccccc2O1 (centres unmarked),-0.498
20,COc1cccc(C2c3[nH]c4ccccc4c3C[C@H]3C(=O)N(C4CCN(Cc5ccccc5)CC4)CC(=O)N23)c1 (some centres unmarked),-8.67
21,Cc1ccc(C(=O)NCC(=O)OCC(=O)c2ccc(Br)s2)cc1,14.5
22,O=C(Nc1ccccc1Cl)c1ccc(S(=O)(=O)N2CCOCC2)cc1,8.25

row,Compound,"hERG current change (%, negative = inhibition) at 1uM [%]"
1,O=C(N1CCOCC1)N1CCCC(c2nc(-c3cccs3)no2)C1 (centres unmarked),1
2,Cc1ccc(-n2nnc3c(SCC(=O)NCC4CCCO4)ncnc32)cc1 (centres unmarked),-4.26
3,O=C(O)c1ccc(CSCc2ccco2)cc1,9.84
4,CCOc1cccc2cc(C(=O)Nc3cc(C)on3)c(=O)oc12,0.238
5,COc1cc(C(=O)O/N=C2\C=CC(=O)C(C)=C2)cc(OC)c1OC,14.6
6,CC(C#N)Sc1ncnc2sc3c(c12)CCC3 (centres unmarked),9.99
7,CC1CCN(C(=O)COC(=O)[C@H](C)NS(=O)(=O)/C=C/c2ccccc2)CC1,1.96
8,CN1c2ccccc2C(C)(C)C12CC(CCl)=NO2 (centres unmarked),11.1
9,Cc1cc(C)c2c(N)c(C(=O)c3ccccc3)sc2n1,9.17
10,Cc1cc(C(F)(F)F)nn1CC(=O)Nc1ccc2c(c1)OCO2,8.52
11,COc1ccc(CCn2nnnc2C(c2ccc(C)cc2)N2CCN(C)CC2)cc1OC.Cl (centres unmarked),-0.689
12,Cc1cc(C)cc(N2CC34C=CC(O3)C(C(=O)OCC(=O)NCc3ccco3)C4C2=O)c1 (centres unmarked),-5.92
13,COc1ccc(CNC(=O)c2cc(-c3cc(C)cc(C)c3O)n[nH]2)cc1,12
14,O=C(CCN(NC(=O)c1ccccc1)C1=NS(=O)(=O)c2ccccc21)NC1CCCCC1,12.6
15,CS(=O)(=O)N(CC(=O)Nc1ccc2c(c1)OCO2)Cc1ccccc1,11.2
16,CC(=O)Nc1ccc(NS(=O)(=O)c2cccc3ccccc23)cc1,2.91
17,O=C(/C=C/c1ccccc1)NC(=S)Nc1cccnc1,10.8
18,COc1ccc(-n2c(CNc3ccc(C)cc3)nnc2SCc2ccccc2)cc1,7.59
19,COc1ccc(CNC(=O)CN(Cc2ccccc2)C(=O)CCC(=O)Nc2ccccn2)cc1,-25.1
20,O=[N+]([O-])c1nn(-c2ccc(Cl)cc2)n(O)c1=NCc1ccncc1,-6.54
21,O=c1ccc(-c2ccccc2)nn1Cc1ccccc1F,9.68
22,Cc1cc(C)c(-n2nnnc2SCC(=O)c2cc3ccccc3o2)c(C)c1,8.76
